Source: the supplement of paper PMC3334620
Over roughly 33,000 sequences, “E-score (-0.5 to 0.5)” has its median near -0.021; the highest 2% begin near 0.32. The list shows a part of the results.

biological target: T1, Zap1 (UniProt P47043); test: PBM E-score (8-mer binding enrichment) (E-score (-0.5 to 0.5)); higher = stronger / more preferred TF binding; most listed sequences are background and not binding sites; details: protein concentration: 200 nM; construct: GST-full length
T1 sequence: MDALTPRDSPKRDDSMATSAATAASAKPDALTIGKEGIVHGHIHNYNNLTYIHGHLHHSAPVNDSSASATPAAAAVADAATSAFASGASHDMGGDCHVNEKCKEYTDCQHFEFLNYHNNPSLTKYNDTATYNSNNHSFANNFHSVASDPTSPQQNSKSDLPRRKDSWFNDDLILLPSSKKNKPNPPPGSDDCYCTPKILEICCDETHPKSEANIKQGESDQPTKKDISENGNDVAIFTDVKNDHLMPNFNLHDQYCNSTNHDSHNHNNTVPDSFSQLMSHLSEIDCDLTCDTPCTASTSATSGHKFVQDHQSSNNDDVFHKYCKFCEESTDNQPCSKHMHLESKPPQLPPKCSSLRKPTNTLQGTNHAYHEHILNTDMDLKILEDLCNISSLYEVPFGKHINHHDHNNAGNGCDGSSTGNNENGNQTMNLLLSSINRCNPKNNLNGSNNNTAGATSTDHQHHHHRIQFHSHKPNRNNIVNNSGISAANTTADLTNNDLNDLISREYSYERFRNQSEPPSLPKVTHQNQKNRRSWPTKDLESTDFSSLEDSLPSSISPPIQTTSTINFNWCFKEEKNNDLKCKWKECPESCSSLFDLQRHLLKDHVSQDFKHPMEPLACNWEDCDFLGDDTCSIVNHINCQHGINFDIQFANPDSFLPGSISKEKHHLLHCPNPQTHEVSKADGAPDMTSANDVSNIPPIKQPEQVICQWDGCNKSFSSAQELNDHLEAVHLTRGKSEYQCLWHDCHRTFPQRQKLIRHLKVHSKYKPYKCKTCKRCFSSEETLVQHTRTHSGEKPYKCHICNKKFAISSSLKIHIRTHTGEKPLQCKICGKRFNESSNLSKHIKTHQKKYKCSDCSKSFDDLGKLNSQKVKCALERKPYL
Procedure, shortened: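 Yeast transcription factors carrying a GST tag, as full-length proteins or DNA-binding domains, were produced by PURExpress in vitro transcription/translation. About 100-200 nM protein was applied to universal all-10-mer Agilent arrays, double-stranded by primer extension on fresh or once-stripped slides. Bound protein was detected with fluorescent anti-GST, and scans were normalised with masliner. The Universal PBM Analysis Suite gave each ungapped eight-base word, pooled with its reverse complement, an E-score, a modified Wilcoxon-Mann-Whitney statistic.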

Sequence	PBM E-score
CCATCCAA	-0.0626
CATTCGGA	-0.0464
ACAATTTC	-0.111
ATCTGCCG	-0.0036
GCTTCCGA	-0.0201
CTCTGTAA	-0.0317
ATATGGTG	0.03
GACCAGTA	0.0618
CCAACTTC	-0.0523
ACCCCCAG	-0.0789
GTGAATTA	0.206
CTTAGAGC	0.0313
AGCTTCCA	-0.202
ACAGAGGT	0.283
AGCGATAA	0.00415
CGTTGAAC	-0.11
GGGTGGTA	0.252
ACAGGCCT	-0.0521
CGTAACAC	-0.0261
ACACGTAC	-0.0848
AGAGGCGA	-0.298
CAACGGTC	0.19
AGAGGCAA	-0.136
GAGCAATC	-0.187
GGAGGCCA	-0.112

Sequence	PBM E-score
GCCCCATA	-0.0925
ACCTTCTA	0.304
GCTAGGAA	-0.00118
AGTGCTCG	-0.133
CCTACGCG	-0.0918
CCAACAGA	-0.0498
CAGAAAAA	0.203
CACCTACC	0.0874
ACACCGCT	-0.06
AGCGGGGA	-0.228
CGGGTTTA	0.205
ATCTCGAG	-0.0636
GGGCTAAA	-0.0367
CATTCTAG	-0.0521
ACGACCAA	0.117
CTCGTGAC	0.0578
CCTGGCCG	-0.0362
GGACCTAC	-0.118
CACAGAGG	0.113
ACACTTCG	-0.00099
CCTATGCA	-0.142
AAATTTCT	-0.0616
GCTTGGAA	-0.0685
AGGTAATG	0.311
AATTTAAA	0.0611

Sequence	PBM E-score
ATTAAATA	0.195
ATACAGGC	-0.234
CCTGCAAC	0.0235
ATTATCAG	-0.125
AGATGTAC	-0.0494
AGGGTAAC	0.405
CGATGAGA	0.0165
CCTATGTA	-0.0355
AGCAGGTA	0.0269
GTATAGAC	0.0398
CGGCGCTA	-0.213
CGCAAACG	0.00749
CAAACCGG	0.0523
ACCAAGGC	-0.0597
GCAGATGA	-0.0886
GCTCTGAA	-0.305
ATCCGGGA	-0.194
AGTGTCCG	-0.0651
ATAGTCAC	0.116
AGGATATC	0.0735
AAGGTCCC	0.152
ACGGTAAC	0.364
GCCACAAA	0.221
ACGAATCT	-0.0209
CAGACCGA	-0.0449

Sequence	PBM E-score
CTTGATCA	0.139
CGATTCAA	-0.161
CATGTGGA	-0.0576
ATCACACC	-0.01
GGGCTCAC	-0.245
ACCAGGTC	0.126
AGACGAAC	0.0722
CTCTACAC	-0.036
GGTCGGAA	0.163
AGGACGTA	-0.169
ATGCACAG	-0.0553
CAGTCAAC	-0.218
AAAACAGG	0.11
AGCCTGAG	-0.0458
CAGTTTTC	0.00131
AGACAACC	0.31
AATGTCAA	-0.0621
CATTAAGA	0.0427
AGCAGCCC	-0.254
ACATAAAG	0.0237
GGGCTCTA	-0.158
TATGCAGA	-0.0265
ACAGGTTC	-0.12
AAGTAGGA	-0.158
CGATACCG	0.0831

Sequence	PBM E-score
CCCATCGA	0.126
CGATATGA	-0.105
GTAAGTGA	0.0969
ACTTGCTA	-0.115
CTCCTCCC	-0.2
AATTGCTA	0.0693
CCTTACGC	-0.00775
ACCCCCGT	-0.206
CATATTAC	0.117
AATTACTA	0.058
AAGATACG	-0.147
CGCATAAG	-0.0381
AGTTGCTG	-0.12
CATACTCC	-0.0252
GCTGAAAC	-0.00548
ACGGGGCA	-0.143
AGACTCGC	-0.212
AATGCTGG	-0.0452
ATGAGTCG	-0.245
GACAGCTA	-0.278
AAACCAAG	0.153
CCCGCGGA	-0.0476
ATTCTGGG	0.0872
ATACCAAC	0.18
AATTGCTG	0.115

Sequence	PBM E-score
ACACGGCT	-0.0652
GGAGACGA	-0.032
CCCTTGCA	-0.00874
GCCATGAA	0.195
CATACGCG	0.0471
ATGCGGCC	-0.00897
GTCAGACA	-0.149
TAACCCCA	0.424
GCATCGAC	-0.175
CGGCCACC	0.194
CCAATGAC	0.077
GATCGTTA	-0.237
ATCAGCTG	0.035
CCAGGCGA	-0.217
CTTCCGAA	0.0635
AGGACACA	0.16
GATGACGA	-0.0906
TCCTAAAA	-0.0365
CACCAGAA	-0.00435
CGCCAGAA	-0.0069
CATTCCAA	-0.0693
TTAGGAAA	0.102
ACCGGCCC	-0.0813
AAGCTCCA	-0.23
CTAGAAGA	-0.102

Sequence	PBM E-score
AGGAATAC	0.0547
TGGGGCAA	-0.169
GCGGTCGA	0.0793
CGGGTATC	0.252
ATACACAG	0.0559
GGGTTATA	0.474
CATAAAGC	-0.159
ATATTTAG	0.079
GATCCGGA	-0.144
ATAGCATC	-0.129
AATTTCGC	0.0262
ATACGGCG	-0.0742
CAGGACAA	0.198
GAAAATCA	-0.0693
CCGTACGA	-0.144
CCGGCCGC	-0.00756
CCCACGTA	-0.0742
AGTCATGC	-0.3
CTTCACCA	-0.176
ACACTCAG	0.019
AGGAAATA	0.128
ACAGTGTC	-0.0968
